Results from the supplement of paper PMC3334620.
In all, about 33,000 sequences were measured (“E-score (-0.5 to 0.5)”: median about -0.021, highest 2% from about 0.32 on). The list shows a part of the results.

Molecular target: T1, Zap1 (UniProt P47043)
T1 sequence: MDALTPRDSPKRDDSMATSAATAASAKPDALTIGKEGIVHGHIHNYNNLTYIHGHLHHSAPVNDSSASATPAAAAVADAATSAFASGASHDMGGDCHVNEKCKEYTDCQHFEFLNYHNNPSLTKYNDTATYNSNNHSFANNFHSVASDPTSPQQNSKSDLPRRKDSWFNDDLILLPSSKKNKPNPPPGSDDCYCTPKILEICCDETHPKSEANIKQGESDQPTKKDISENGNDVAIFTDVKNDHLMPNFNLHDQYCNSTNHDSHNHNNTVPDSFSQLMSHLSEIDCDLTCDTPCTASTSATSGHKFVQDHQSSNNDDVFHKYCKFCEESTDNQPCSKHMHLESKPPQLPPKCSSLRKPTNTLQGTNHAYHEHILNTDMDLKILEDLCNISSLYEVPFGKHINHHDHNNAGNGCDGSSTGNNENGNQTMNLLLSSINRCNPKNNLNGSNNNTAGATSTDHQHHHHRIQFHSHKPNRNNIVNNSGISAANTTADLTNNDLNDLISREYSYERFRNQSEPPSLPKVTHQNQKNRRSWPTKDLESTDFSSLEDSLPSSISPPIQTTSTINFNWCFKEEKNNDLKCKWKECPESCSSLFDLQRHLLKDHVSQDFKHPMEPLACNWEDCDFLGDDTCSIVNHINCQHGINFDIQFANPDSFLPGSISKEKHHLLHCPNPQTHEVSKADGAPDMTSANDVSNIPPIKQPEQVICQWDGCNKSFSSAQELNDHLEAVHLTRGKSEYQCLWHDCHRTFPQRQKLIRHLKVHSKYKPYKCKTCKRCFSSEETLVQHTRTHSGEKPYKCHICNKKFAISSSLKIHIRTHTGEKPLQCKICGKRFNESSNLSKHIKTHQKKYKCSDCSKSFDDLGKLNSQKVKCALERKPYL
Assay: PBM E-score (8-mer binding enrichment) (E-score (-0.5 to 0.5)); higher = stronger / more preferred TF binding; most listed sequences are background and not binding sites
Settings: protein concentration: 200 nM; construct: GST-full length
How it was run: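 Masliner-normalised scans of fluorescent anti-GST signal were the basis for scoring. That signal came from GST-tagged yeast transcription factors applied at about 100-200 nM to double-stranded universal all-10-mer Agilent arrays on fresh or once-stripped slides. Each ungapped eight-base word, pooled with its reverse complement, received an E-score from the Universal PBM Analysis Suite.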

Sequence	PBM E-score
CCATTACA	0.158
ATCCCGCA	-0.0968
CCTATGCG	0.0463
AACCGTCG	0.0382
CATCGTGC	-0.063
AAAAGCGA	-0.0413
GTCCTTGA	0.113
CTAACTGC	-0.167
CGCAGAGC	-0.298
ATGCCCCC	-0.279
AACCCCCC	-0.236
GCATCTTA	-0.0867
ACCTACAG	0.181
CTCCGTGA	-0.0721
AATGGTAG	0.176
GACCACAA	0.185
GTCGCTGA	0.0402
CCAATTAC	0.103
CATCAAGG	0.0235
GTACTAAC	0.256
ACATACAG	-0.0104
GAGACTAC	-0.0857
CCGAAAAC	0.226
AAGACTGA	-0.123
AAATGCTG	0.0958

Sequence	PBM E-score
AGCGATGG	-0.195
CTCAGTAA	-0.0366
CTGGCCGC	-0.0223
GAATAAGA	-0.0964
CTTGGTGA	0.0553
AATTAAGC	0.0649
CCTGAGTA	0.052
CCGGAAGG	0.208
ACGTTGAG	-0.0801
AAGCCAAA	-0.144
CTTTAACC	0.405
AACTATGC	-0.0166
ATAAACTG	0.154
CATAGCCC	-0.312
TAGAATAA	0.202
CATCTGGC	-0.183
AAATTATA	0.202
CATTTCGA	-0.0786
CTGGAATC	-0.174
TCATTGAA	-0.0668
GAGCGGGA	-0.122
CACAGGCC	-0.0122
GGGCACAC	-0.104
ACCGGCGA	0.0478
ATAAGCAC	-0.00953

Sequence	PBM E-score
TACTGACA	0.163
CATATAGG	0.0645
CTCTATAA	0.00505
ACTGTGAT	-0.0423
AAACTATC	0.109
GGCCAATA	-0.0986
CTGGGTGC	-0.134
ACATCATC	-0.176
CGATTCCG	-0.225
CTCGTAGA	-0.224
AGCTTACA	0.027
TAGCGGCA	-0.204
GGGAGGAA	-0.255
GAAGTGGA	0.00769
AAACCAGC	0.184
GGAGTATA	-0.0931
CCGGACAA	-0.00924
AACGCGGC	0.1
TCCGGCGA	-0.224
GACCTCCA	0.109
GTGATCGA	0.186
CGGTCTTC	0.204
GGAAAGCC	-0.158
ATGAATGA	0.0161
CCCATGAG	0.0148

Sequence	PBM E-score
GTCCCTTA	0.0953
TGGTGCAA	0.0118
ATTGGCCA	-0.021
GAGAGCTA	-0.305
AACGACGA	-0.0964
ACCGTACA	0.155
GAAGATGA	0.0533
GTACGCCA	-0.104
CTGACTAC	-0.125
ACTAAACG	-0.0129
ATTGACCC	0.108
ACTCAACG	-0.059
ATAGGTGG	-0.0764
ACTTAAGG	0.145
ACGGCGCT	-0.198
CTGATAGC	-0.121
CATTCCGA	-0.0183
GGCTCATA	-0.0731
TACGACGA	-0.0483
GGGGCCCA	0.0748
CAAATCAG	0.00535
ACCCCAAA	0.337
CCTAAATA	0.0807
AGCACCTC	0.0338
AACAAGGG	0.174

Sequence	PBM E-score
ATATTTCA	0.0428
AAAATGGT	0.312
CGCATCAA	-0.0179
AAGATCTG	-0.0123
CTCCCAAA	-0.00366
AAACAAAC	0.135
TGTAGGAA	0.00394
ACATCCCT	-0.127
ATGTCCTA	-0.0727
AAATACCG	0.162
AAGAGCTG	-0.164
CACGTCCC	-0.16
AGGTTGAA	0.0804
CGCCACAG	-0.248
TTATAGAA	0.213
AGGCCCAA	-0.0071
AGCAGTCA	0.00094
CCTGTTTC	0.0289
CCGAAATA	0.185
ATTGAAAG	0.172
AAACCGTG	-0.0225
ACTTTTGG	0.225
TATCCATA	0.122
GCCGCATA	0.102
CCTGCAGC	-0.0448

Sequence	PBM E-score
CCGTTACA	0.061
TATCGGGA	0.00135
AAATAGAT	0.146
AGTTAGTG	0.123
TGCCAACA	-0.0561
GTGTGTAA	0.17
AGAACCAC	0.285
ACGATCGT	0.0702
GTGGGGAA	0.129
CCTCTTGA	0.148
GGCCTGTA	-0.164
CTGCGCAC	-0.0749
AAGGCCAT	0.103
GGTGTTAA	0.00917
GCCGGTCA	0.0353
CGAGTTAC	0.244
GCGAAACA	-0.0311
ACCATTGC	0.168
CTCAATTC	0.111
CTCACGAG	0.0376
AGAGGTTC	0.231
ATCATGCA	-0.0146
GGACGAAC	0.00463
CCGAATAC	0.112
AAATAATG	0.201

Sequence	PBM E-score
GCTAAGCA	-0.0537
ACCCTGGC	0.183
GTAAGATA	0.186
CGTTGTAA	0.0257
CACATTGA	-0.148
ATATGGTA	0.246
AACGTAGT	-0.0381
ATATACAA	0.211
GATCACAA	0.193
TATCAAAA	0.155
ACTACATC	-0.0446
CTCGTCAC	0.099
CAACTTTA	0.089
GAAACGGC	-0.0522
CCAAGCAC	0.0683
GCCCGAGA	0.124
GCATGGCA	-0.19
CACCGCAC	-0.033
GCGAAACC	0.139
CAGCTTGG	-0.0782
ACGGGTAA	0.178
CTAACCTC	0.305
